The supplement of paper PMC4166925
± gives the standard deviation of the averaged measurements. Whole data set: some 33,000 sequences, median “E-score (dimensionless, -0.5 to 0.5)” near -0.046, cut for the highest 2% near 0.36. Some of the results follow.

system: T1, SpTbr T-box DNA-binding domain (GST fusion); experiment: PBM E-score of 8-mer (E-score (dimensionless, -0.5 to 0.5)); Tbr is Tbrain of the sea star Patiria miniata (Pm) or the sea urchin Strongylocentrotus purpuratus (Sp); higher = stronger binding preference; most listed sequences are background and not binding sites; conditions: the construct has about 5 more residues each side
T1 sequence: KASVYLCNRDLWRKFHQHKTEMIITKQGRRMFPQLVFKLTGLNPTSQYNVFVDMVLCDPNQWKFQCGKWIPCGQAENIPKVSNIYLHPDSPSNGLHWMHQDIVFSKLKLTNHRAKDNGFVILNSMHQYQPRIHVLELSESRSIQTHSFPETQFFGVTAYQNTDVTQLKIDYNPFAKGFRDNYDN
Procedure, shortened: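 GST-fused Tbr T-box DNA-binding domains (the whole T-box plus about five flanking residues) were expressed in BL21 E. coli at 20 °C and purified by glutathione affinity chromatography. Universal Agilent oligonucleotide arrays were made double-stranded by primer extension, incubated with 200 nM protein in PBS (pH 7.5), then scanned and quantified. Every ungapped 8-mer was scored from probe intensities. The Universal PBM Analysis Suite gave each word an enrichment E-score, averaged over duplicate arrays.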

Row | Sequence | PBM E-score of 8-mer
1 | TCGTAGAA | -0.27 ± 0.026
2 | AGGCATAG | -0.272 ± 0.04
3 | CATTACAG | -0.0811 ± 0.0099
4 | CCCCGGCA | -0.143 ± 0.094
5 | CGAGATAA | -0.0943 ± 0.053
6 | CGCCATCA | 0.187 ± 0.006
7 | GGGGTGTA | 0.167 ± 0.062
8 | CGGGTTAA | -0.0722 ± 0.056
9 | AGCACCTA | 0.409 ± 0.0069
10 | CATGACGG | -0.0336 ± 0.039
11 | ACTGTATC | -0.235 ± 0.079
12 | AACGCACC | 0.1 ± 0.027
13 | AAAAGGGG | -0.134 ± 0.14
14 | GGAAATAA | 0.0299 ± 0.043
15 | ATCTTCGC | 0.198 ± 0.0039
16 | ATACAGTC | -0.183 ± 0.033
17 | ATGGAATG | -0.205 ± 0.056
18 | CAGGCTAA | -0.256 ± 0.0071
19 | CGAAAACA | 0.148 ± 0.0075
20 | GTTACCTA | 0.00777 ± 0.06
21 | AGATCCGA | -0.238 ± 0.024
22 | CGAGAGCA | 0.0598 ± 0.088

Row | Sequence | PBM E-score of 8-mer
23 | ATTTCCGC | -0.0491 ± 0.047
24 | AATTTCCC | -0.0386 ± 0.024
25 | AGACCGGA | -0.2436 ± 0.00056
26 | ATCCCCTA | -0.2504 ± 0.00086
27 | AACCGGTC | -0.162 ± 0.02
28 | CTTGAAAA | -0.0358 ± 0.00039
29 | ACGCTCAA | 0.0388 ± 0.056
30 | CGCGCCCG | 0.248 ± 0.054
31 | AGCACAAG | -0.114 ± 0.035
32 | CGCAAATC | 0.151 ± 0.01
33 | AAGCCTGT | -0.0871 ± 0.023
34 | CGACTGTC | 0.0969 ± 0.0063
35 | CGCCGCAC | 0.257 ± 0.0075
36 | CTGCCACA | 0.268 ± 0.02
37 | CTCTAAAC | -0.0505 ± 0.076
38 | GCGAGCAA | 0.114 ± 0.026
39 | GGATGATA | -0.0893 ± 0.062
40 | AACTCTAA | -0.253 ± 0.003
41 | CTGGCCAG | -0.194 ± 0.017
42 | CGTTGAAA | -0.0127 ± 0.03
43 | ACGAGATG | 0.0173 ± 0.074
44 | ATGCGATG | -0.0228 ± 0.0097

Row | Sequence | PBM E-score of 8-mer
45 | GCGTAAAA | 0.0954 ± 0.1
46 | GCTCTCTA | -0.071 ± 0.062
47 | TCACCAAA | 0.181 ± 0.019
48 | CTTTTAGC | 0.105 ± 0.06
49 | CATTAGCC | -0.1746 ± 0.0017
50 | AGCCGACC | -0.135 ± 0.14
51 | CCACTGAA | -0.234 ± 0.086
52 | AGAGGGAA | -0.179 ± 0.028
53 | CCGCAACC | -0.0683 ± 0.12
54 | AATCGTTG | -0.0248 ± 0.028
55 | CGGCAGAG | -0.00848 ± 0.0038
56 | AAGTCATG | 0.00265 ± 0.027
57 | CACTGAGA | -0.123 ± 0.033
58 | AAATGAGA | -0.237 ± 0.04
59 | ACACATTC | 0.38 ± 0.022
60 | AAATAGGT | 0.0743 ± 0.0022
61 | GCGGACGA | 0.0697 ± 0.076
62 | ACCTGAAG | -0.0399 ± 0.12
63 | AGCGCGTA | 0.206 ± 0.027
64 | AGTAAACT | -0.139 ± 0.028
65 | ATCCCGAA | -0.0831 ± 0.035
66 | TAAATTGA | -0.00251 ± 0.079

Row | Sequence | PBM E-score of 8-mer
67 | AATGTTCT | -0.298 ± 0.053
68 | AGAGCATG | -0.1412 ± 0.0013
69 | TGCATACA | -0.187 ± 0.0086
70 | CGGTACTA | -0.195 ± 0.031
71 | GTAGTCTA | -0.116 ± 0.06
72 | CTACTAAG | -0.226 ± 0.012
73 | GTCGATCA | 0.0683 ± 0.028
74 | GCCCGGTA | -0.239 ± 0.12
75 | GGTTTCAA | -0.0512 ± 0.061
76 | ACTTTCTC | 0.0792 ± 0.07
77 | CGTAAATA | -0.162 ± 0.0047
78 | ATTTTCCG | -0.0713 ± 0.035
79 | ATTCGTTA | 0.0736 ± 0.051
80 | AATCTTGA | -0.148 ± 0.018
81 | CGGACTGC | 0.0817 ± 0.0017
82 | AATGCATG | -0.0811 ± 0.014
83 | ATTGAGCG | 0.101 ± 0.024
84 | GCTGCCCC | -0.16 ± 0.027
85 | AGGCATGG | -0.326 ± 0.024
86 | ACCCATAA | -0.00948 ± 0.027
87 | CAGTTAAC | 0.0757 ± 0.03
88 | GCCCCCTA | -0.206 ± 0.05

Row | Sequence | PBM E-score of 8-mer
89 | AGATCGAG | -0.104 ± 0.058
90 | CGCCCGCA | 0.016 ± 0.092
91 | CACGCTAA | 0.189 ± 0.0026
92 | AGTGCCTG | -0.108 ± 0.096
93 | AGCATGCC | -0.173 ± 0.059
94 | GGAAGTCA | -0.175 ± 0.064
95 | GGGGTCAA | -0.0735 ± 0.019
96 | AAACGAGA | -0.256 ± 0.032
97 | AATGCTTA | -0.107 ± 0.0042
98 | GATCCCCA | 0.0786 ± 0.031
99 | CGAATCTA | -0.0903 ± 0.013
100 | TGGCAGAA | -0.18 ± 0.022
101 | CCCTGTTC | -0.169 ± 0.0068
102 | CAACTGGG | -0.029 ± 0.029
103 | ATCTCGCG | 0.271 ± 0.01
104 | GAGCACAC | 0.086 ± 0.016
105 | CTTCCAAG | -0.213 ± 0.039
106 | GTTGCATA | -0.117 ± 0.03
107 | AGTCTCAG | -0.136 ± 0.059
108 | ATCTACTA | -0.229 ± 0.003
109 | AAGCCATG | -0.217 ± 0.025
110 | ATGTTAAC | 0.182 ± 0.097
